Data on 42 sequences can be found in article PMC7819943, “Rice protein-binding microarrays: a tool to detect cis-acting elements near promoter regions in rice”.

This is one part of the list.

The target in the test is T1, OsWOX13 (Oryza sativa, UniProt Q5QMM3 1-267).
T1 sequence: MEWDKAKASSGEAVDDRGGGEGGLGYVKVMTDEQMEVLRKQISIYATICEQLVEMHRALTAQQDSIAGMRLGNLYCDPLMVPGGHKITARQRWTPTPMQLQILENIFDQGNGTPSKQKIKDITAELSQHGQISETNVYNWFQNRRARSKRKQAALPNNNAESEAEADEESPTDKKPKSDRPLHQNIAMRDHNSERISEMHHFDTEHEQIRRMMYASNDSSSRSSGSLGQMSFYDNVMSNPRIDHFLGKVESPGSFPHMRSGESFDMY
Briefly: protein-binding microarray (RPBM); PBS, 2% BSA, 51.3 ng/ul salmon testes DNA, 50 uM zinc acetate, 200 nM TF, 25 C, 1 h; high values mean tight binding. To be noted: protein: recombinant; tags: N-terminal polyhistidine and DsRed monomer fusion (pET32a); label: CyDye5-dUTP incorporated in the synthesized complementary strand; 3' TTTTT single-stranded linker to array surface; dsDNA, one strand shown. In short, it runs like this: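 Transcription factors were made in E. coli BL21-CodonPlus as N-terminal fusions to a polyhistidine tag and DsRed, then purified on Ni–NTA. After primer extension with Cy5-dUTP and blocking with 2% BSA, a custom Agilent array was exposed for 1 h at 25 °C to 200 nM protein in PBS, 2% BSA, salmon testes DNA and 50 µM zinc acetate. Washed arrays were scanned on an Axon 4000B, and the binding signal is per-feature fluorescence intensity in arbitrary units.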
Regarding “TTATAAATAAATTAGTATATCAAATATAAAATATCATTCACGGAGTCACCTAGTGCAG”, the binding signal was 11100 fluorescence intensity (a.u.).
The result for “CGTTCTTGTTCTTGTTCTTGTCCTCCTCTGCTTTAATTTTCGGAGTCACCTAGTGCAG” reads 3890 fluorescence intensity (a.u.).
The result for “AATTAATTAATCAAGGTTGTAACCACACAGATCGATGGACCGGAGTCACCTAGTGCAG” reads 41700 fluorescence intensity (a.u.).
For “AGGGGTAAATCACAGTTACTGTACCAATCCAAAATATTTGCGGAGTCACCTAGTGCAG” the value was 5110 fluorescence intensity (a.u.); for “ACTTCCAATATAATTATTCTTTGTTTTCACAAATTTCAATCGGAGTCACCTAGTGCAG”, 4820 fluorescence intensity (a.u.).
In the case of “TCGAAATTTCGAAATCAAATCGGTGCGAGCGATGAGCCGACGGAGTCACCTAGTGCAG”, the binding signal was 4710 fluorescence intensity (a.u.).
The result for “TCAAATTATTGGCGAATATACAAAGCGGCAAGTGGTGTACCGGAGTCACCTAGTGCAG” reads 5530 fluorescence intensity (a.u.); that for “AAGAGTTTATTGATGAGTAGGAATCGACGTATTCTAGATTCGGAGTCACCTAGTGCAG”, 3560 fluorescence intensity (a.u.).
The result for “TCAATCAATCAATTAATTAGTAATTCAAAGTACTAAACACCGGAGTCACCTAGTGCAG” reads 40200 fluorescence intensity (a.u.); that for “TACTCCAATTGATAGCCTGCAATATTCGCTTTCAGAATTTCGGAGTCACCTAGTGCAG”, 6160 fluorescence intensity (a.u.); that for “AATGTTAATTTTAAAATCCTTAATACACCTTAAAATCACCCGGAGTCACCTAGTGCAG”, 15800 fluorescence intensity (a.u.).
The result for “GTCTTAAACAATTGATTATATACATCCAAGCATATCTCCACGGAGTCACCTAGTGCAG” reads 13800 fluorescence intensity (a.u.).
As to “CTAATTGACATGAAACAAACTTTTCTAAACCTAATCAGAGCGGAGTCACCTAGTGCAG”, the binding signal was 35900 fluorescence intensity (a.u.).
The result for “AATCAATTTAATAATTGATTAAACAGAGCAAATTTTAGCTCGGAGTCACCTAGTGCAG” reads 65100 fluorescence intensity (a.u.); that for “CTGACCACACTAAATTAGTATGTAGTATACACAGGCATACCGGAGTCACCTAGTGCAG”, 3860 fluorescence intensity (a.u.); that for “GGCCCTGGTGATTTGACAGGTGGGCTGGGCTACAACGAGCCGGAGTCACCTAGTGCAG”, 8490 fluorescence intensity (a.u.).
For “ACACATAATGTAATCTATTTTGATATAACCAAAAGCTGTTCGGAGTCACCTAGTGCAG” the value was 7540 fluorescence intensity (a.u.); for “TTACATGGTAACCGATTGACAGTGTACTCTACAAACGTATCGGAGTCACCTAGTGCAG”, 3810 fluorescence intensity (a.u.).
The result for “ACATTTAATTTGTTCCTCTCTGATACTACTAGACCCCAAACGGAGTCACCTAGTGCAG” reads 19500 fluorescence intensity (a.u.).
On to “ATGTTCCTAATTAGGGGCAGACGATTTCTTGAACTGTACTCGGAGTCACCTAGTGCAG”, for which the binding signal was 12500 fluorescence intensity (a.u.).
For “GGTGGTAATTGTTTTACTCGCATACCACAAAATCTCAGTTCGGAGTCACCTAGTGCAG” the value was 7950 fluorescence intensity (a.u.); for “TTTTATTTGGCGTAAATTGAGCGTTGTAAGTTATTGGCTACGGAGTCACCTAGTGCAG”, 4080 fluorescence intensity (a.u.).
Turning to “AAACAGTTTTCCCCAAAATTGATTGTAAATATACATATACCGGAGTCACCTAGTGCAG”, the binding signal was 14900 fluorescence intensity (a.u.).
Turning to “GAAGATTGGATAGTCACAGTGTGTGGAGAAATTGAACGACCGGAGTCACCTAGTGCAG”, the binding signal is 24600 fluorescence intensity (a.u.).
The result for “GTGTCCATCAATCCATCCATCCATGCTTATTTTCTCAAGACGGAGTCACCTAGTGCAG” reads 7760 fluorescence intensity (a.u.); that for “GTAACTATAGATAATTTGGAGCTAGTAGTTGGTTATACTACGGAGTCACCTAGTGCAG”, 3270 fluorescence intensity (a.u.).
The result for “CACGTGCCAATCATGATCTAGCTACATCTAGACAAGGGGACGGAGTCACCTAGTGCAG” reads 10800 fluorescence intensity (a.u.); that for “ATTTTAATAAAATTTGGTCACATTTAAACAAAATTTGCCACGGAGTCACCTAGTGCAG”, 4240 fluorescence intensity (a.u.); that for “CTCAGATTTGATGTGACACATTTGCATCAAGAAGCAAAGGCGGAGTCACCTAGTGCAG”, 11700 fluorescence intensity (a.u.).
As for “AAGTACTGATATCTGTGACATAATTTGAATTGGTATCTCACGGAGTCACCTAGTGCAG”, the binding signal is 5320 fluorescence intensity (a.u.).
As to “TTTTAATTAGAATCTAATTAATTGTGGGTTGTTTCAGCTTCGGAGTCACCTAGTGCAG”, the binding signal was 40500 fluorescence intensity (a.u.).
The result for “TGCACTAGTGACAGATTAATTAAGCTCAAAAGATTTGTCACGGAGTCACCTAGTGCAG” reads 10800 fluorescence intensity (a.u.).
As for “GAAAATTTGATGAAAAGTCACTCTCAATCGTGGGCTTCAACGGAGTCACCTAGTGCAG”, the binding signal is 4510 fluorescence intensity (a.u.).
With “GACAGTTAATCAAGATCATTTACTCTCCCCTTCCCATTTTCGGAGTCACCTAGTGCAG”, the binding signal is 4540 fluorescence intensity (a.u.).
The result for “AAAATTTTAAATGTGGCTATGATAGGCTAAATAGAAAACACGGAGTCACCTAGTGCAG” reads 6150 fluorescence intensity (a.u.); that for “TATTCTCACTAATTTGTATAACTAACCTCATGAAACATGTCGGAGTCACCTAGTGCAG”, 4840 fluorescence intensity (a.u.); that for “ACAAACTGACACCGGAGAAATTTGATCTACTCAAGGGCCACGGAGTCACCTAGTGCAG”, 7800 fluorescence intensity (a.u.).
Consider “CCCAATCACCATTTTCACCCCACTTTGTCACCTAGCAAGGCGGAGTCACCTAGTGCAG”, for which the binding signal was 5650 fluorescence intensity (a.u.).
The result for “TTTCCCCATCTATCCCTAGATTGGCATAGTGTCTTCTAATCGGAGTCACCTAGTGCAG” reads 6980 fluorescence intensity (a.u.); that for “TCTAGCTAATCAGTATAGACAGTAGTGAGAACAGTTCAGACGGAGTCACCTAGTGCAG”, 3730 fluorescence intensity (a.u.).
For “ATTAATTAATTATTAACTCACCCATTATTCCGCTCGCTAGCGGAGTCACCTAGTGCAG” the value was 47800 fluorescence intensity (a.u.); for “ATTCCAATTCCTTGCTAATAGATACACTGACAAAGTGGCTCGGAGTCACCTAGTGCAG”, 5010 fluorescence intensity (a.u.).
